Consider two molecules from patent publication US20240052051A1.

The assay concerns the target monkey (cyno) transferrin receptor ectodomain with C-terminal myc-myc-hexahistidine tag (REGN2054) (monkey (cyno, Macaca fascicularis)) (UniProt H9EXL1). The assay is described as follows: SPR Biacore, mAb captured by anti-hFc, 100 nM mfTfR-mmh, 25C.

B1: 12839B anti-human TfR IgG1 monoclonal antibody (antibody, V domains shown)
VH: QVQLVESGGGVVQPGRSLRLSCAASGFPFSNYVMYWVRQAPGKGLEWVALIFFDGKKNYHADSVKGRFTITRDNSKNMLYLQMNSLRPEDAAVYYCAKIHCPNGVCYKGYYGMDVWGQGTTVTVSS
VL: [sequence of about 100 residues not given]
For B1, the 100 nM Ag Bound (RU) came out at 11 RU.

B2: 12845B anti-human TfR IgG1 monoclonal antibody (antibody, V domains shown)
VH: EVQLVESGGGLVQPGGSLRLSCAASGFTVSNYEMNWVRQAPGKGLEWVSYISSSTSNIYYADSVKGRFTISRDNAENSLYLQMNSLRVEDTAVYYCVRDGIVVVPVGRGYYYYGLDVWGQGTTVTVSS
VL: [sequence of about 100 residues not given]
As for B2, the 100 nM Ag Bound (RU) is 13 RU.
